{
  "source": "the supplement of paper PMC8728848",
  "binders": {"B1": {"name": "mCC1-Hexahis-Precomplexed (Mus musculus), P31809 (protein)", "chain": "MELASAHLHKGQVPWGGLLLTASLLASWSPATTAEVTIEAVPPQVAEDNNVLLLVHNLPLALGAFAWYKGNTTAIDKEIARFVPNSNMNFTGQAYSGREIIYSNGSLLFQMITMKDMGVYTLDMTDENYRRTQATVRFHVHPILLKPNITSNNSNPVEGDDSVSLTCDSYTDPDNINYLWSRNGESLSEGDRLKLSEGNRTLTLLNVTRNDTGPYVCETRNPVSVNRSDPFSLNIIYGPDTPIISPSDIYLHPGSNLNLSCHAASNPPAQYFWLINEKPHASSQELFIPNITTNNSGTYTCFVNNSVTGLSRTTVKNITVLEPVTQPFLQVTNTTVKELDSVTLTCLSNDIGANIQWLFNSQSLQLTERMTLSQNNSILRIDPIKREDAGEYQCEISNPVSVRRSNSIKLDIIFDPTQGGLSDGHHHHHH"}},
  "assay_in_all_cases": "glycan array binding signal (z-score within array); higher = stronger binding",
  "conditions_in_all_cases": "glycan notation: IUPAC condensed, linker removed",
  "key": {"[1]": {"target": "Fuc(a1-2)[Gal(a1-4)]Gal(b1-4)GlcNAc", "summary_of_the_method": "(§1)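 Arrays were curated from the Consortium for Functional Glycomics database, 3228 in total, and kept only where the protein sequence was available. Binding is expressed as a within-array Z-score. This score was averaged across arrays of the same protein sequence at different concentrations or buffers and across linkers, and negative values can be read as non-binding.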"}, "[2]": {"target": "Fuc(a1-2)[GalNAc(a1-3)]Gal", "summary_of_the_method": "as §1"}, "[3]": {"target": "Fuc(a1-2)[GalNAc(a1-3)]Gal(b1-3)GalNAc(a1-3)[Fuc(a1-2)]Gal(b1-4)GlcNAc", "summary_of_the_method": "as §1"}, "[4]": {"target": "Fuc(a1-2)[GalNAc(a1-3)]Gal(b1-3)GalNAc(b1-3)Gal(a1-4)Gal(b1-4)Glc", "summary_of_the_method": "as §1"}, "[5]": {"target": "Fuc(a1-2)[GalNAc(a1-3)]Gal(b1-3)GlcNAc", "summary_of_the_method": "as §1"}, "[6]": {"target": "Fuc(a1-2)[GalNAc(a1-3)]Gal(b1-3)GlcNAc(b1-2)Man(a1-3)[Fuc(a1-2)[GalNAc(a1-3)]Gal(b1-3)GlcNAc(b1-2)Man(a1-6)]Man(b1-4)GlcNAc(b1-4)GlcNAc", "summary_of_the_method": "as §1"}, "[7]": {"target": "Fuc(a1-2)[GalNAc(a1-3)]Gal(b1-3)GlcNAc(b1-2)Man(a1-3)[Fuc(a1-2)[GalNAc(a1-3)]Gal(b1-3)GlcNAc(b1-2)Man(a1-6)]Man(b1-4)GlcNAc(b1-4)[Fuc(a1-6)]GlcNAc", "summary_of_the_method": "as §1"}, "[8]": {"target": "Fuc(a1-2)[GalNAc(a1-3)]Gal(b1-3)GlcNAc(b1-3)GalNAc", "summary_of_the_method": "as §1"}, "[9]": {"target": "Fuc(a1-2)[GalNAc(a1-3)]Gal(b1-3)GlcNAc(b1-6)GalNAc", "summary_of_the_method": "as §1"}, "[10]": {"target": "Fuc(a1-2)[GalNAc(a1-3)]Gal(b1-4)Glc", "summary_of_the_method": "as §1"}, "[11]": {"target": "Fuc(a1-2)[GalNAc(a1-3)]Gal(b1-4)GlcNAc", "summary_of_the_method": "as §1"}, "[12]": {"target": "Fuc(a1-2)[GalNAc(a1-3)]Gal(b1-4)GlcNAc(b1-2)Man", "summary_of_the_method": "as §1"}, "[13]": {"target": "Fuc(a1-2)[GalNAc(a1-3)]Gal(b1-4)GlcNAc(b1-2)Man(a1-3)[Fuc(a1-2)[GalNAc(a1-3)]Gal(b1-4)GlcNAc(b1-2)Man(a1-6)]Man(b1-4)GlcNAc(b1-4)GlcNAc", "summary_of_the_method": "as §1"}, "[14]": {"target": "Fuc(a1-2)[GalNAc(a1-3)]Gal(b1-4)GlcNAc(b1-2)Man(a1-3)[Fuc(a1-2)[GalNAc(a1-3)]Gal(b1-4)GlcNAc(b1-2)Man(a1-6)]Man(b1-4)GlcNAc(b1-4)[Fuc(a1-6)]GlcNAc", "summary_of_the_method": "as §1"}, "[15]": {"target": "Fuc(a1-2)[GalNAc(a1-3)]Gal(b1-4)GlcNAc(b1-3)Gal(b1-4)GlcNAc", "summary_of_the_method": "as §1"}, "[16]": {"target": "Fuc(a1-2)[GalNAc(a1-3)]Gal(b1-4)GlcNAc(b1-3)Gal(b1-4)GlcNAc(b1-3)Gal(b1-4)GlcNAc", "summary_of_the_method": "as §1"}, "[17]": {"target": "Fuc(a1-2)[GalNAc(a1-3)]Gal(b1-4)GlcNAc(b1-3)GalNAc", "summary_of_the_method": "as §1"}, "[18]": {"target": "Fuc(a1-2)[GalNAc(a1-3)]Gal(b1-4)GlcNAc(b1-3)[Fuc(a1-2)[GalNAc(a1-3)]Gal(b1-4)GlcNAc(b1-6)]GalNAc", "summary_of_the_method": "as §1"}, "[19]": {"target": "Fuc(a1-2)[GalNAc(a1-3)]Gal(b1-4)GlcNAc(b1-6)GalNAc", "summary_of_the_method": "as §1"}, "[20]": {"target": "Fuc(a1-2)[GalNAc(a1-3)]Gal(b1-4)[Fuc(a1-3)]GlcNAc", "summary_of_the_method": "as §1"}, "[21]": {"target": "Fuc(a1-2)[GalNAc(a1-3)]Gal(b1-4)[Fuc(a1-3)]GlcNAc(b1-3)GalNAc", "summary_of_the_method": "as §1"}, "[22]": {"target": "Fuc(a1-2)[GalNAc(a1-4)]Gal(b1-4)GlcNAc", "summary_of_the_method": "as §1"}, "[23]": {"target": "Fuc(a1-2)[GalNAc(b1-3)]Gal", "summary_of_the_method": "as §1"}, "Fuc(a1-3)GlcNAc": {"target": "Fuc(a1-3)GlcNAc", "summary_of_the_method": "as §1"}, "[24]": {"target": "Fuc(a1-3)[Gal(b1-4)]Glc6S", "summary_of_the_method": "as §1"}, "[25]": {"target": "Fuc(a1-3)[Gal(b1-4)]GlcNAc", "summary_of_the_method": "as §1"}, "[26]": {"target": "Fuc(a1-3)[Gal(b1-4)]GlcNAc(b1-2)Man", "summary_of_the_method": "as §1"}, "[27]": {"target": "Fuc(a1-3)[Gal(b1-4)]GlcNAc(b1-2)Man(a1-3)[Fuc(a1-3)[Gal(b1-4)]GlcNAc(b1-2)Man(a1-6)]Man(b1-4)GlcNAc(b1-4)GlcNAc", "summary_of_the_method": "as §1"}, "[28]": {"target": "Fuc(a1-3)[Gal(b1-4)]GlcNAc(b1-2)Man(a1-3)[Fuc(a1-3)[Gal(b1-4)]GlcNAc(b1-2)Man(a1-6)]Man(b1-4)GlcNAc(b1-4)[Fuc(a1-6)]GlcNAc", "summary_of_the_method": "as §1"}, "[29]": {"target": "Fuc(a1-3)[Gal(b1-4)]GlcNAc(b1-3)Gal(b1-3)[Fuc(a1-4)]GlcNAc", "summary_of_the_method": "as §1"}, "[30]": {"target": "Fuc(a1-3)[Gal(b1-4)]GlcNAc(b1-3)GalNAc", "summary_of_the_method": "as §1"}, "[31]": {"target": "Fuc(a1-3)[Gal(b1-4)]GlcNAc(b1-4)Gal(b1-4)[Fuc(a1-3)]GlcNAc", "summary_of_the_method": "as §1"}, "[32]": {"target": "Fuc(a1-3)[Gal(b1-4)]GlcNAc(b1-4)Gal(b1-4)[Fuc(a1-3)]GlcNAc(b1-4)Gal(b1-4)[Fuc(a1-3)]GlcNAc", "summary_of_the_method": "as §1"}, "[33]": {"target": "Fuc(a1-3)[Gal(b1-4)]GlcNAc(b1-6)GalNAc", "summary_of_the_method": "as §1"}, "[34]": {"target": "Fuc(a1-3)[Gal(b1-4)]GlcNAc(b1-6)[Gal(b1-3)GlcNAc(b1-3)]Gal(b1-4)Glc", "summary_of_the_method": "as §1"}, "[35]": {"target": "Fuc(a1-3)[Gal(b1-4)]GlcNAc6S", "summary_of_the_method": "as §1"}, "[36]": {"target": "Fuc(a1-3)[Gal3S(b1-4)]Glc", "summary_of_the_method": "as §1"}, "[37]": {"target": "Fuc(a1-3)[Gal3S(b1-4)]GlcNAc", "summary_of_the_method": "as §1"}},
  "note": "The list shows a part of the results.",
  "data": [
    {"binder": "B1", "values": [
      {"measurement": "glycan array binding signal (z-score)", "setting": "[1]", "result": -0.269},
      {"measurement": "glycan array binding signal (z-score)", "setting": "[2]", "result": -0.177},
      {"measurement": "glycan array binding signal (z-score)", "setting": "[3]", "result": -0.156},
      {"measurement": "glycan array binding signal (z-score)", "setting": "[4]", "result": -0.256},
      {"measurement": "glycan array binding signal (z-score)", "setting": "[5]", "result": -0.277},
      {"measurement": "glycan array binding signal (z-score)", "setting": "[6]", "result": -0.212},
      {"measurement": "glycan array binding signal (z-score)", "setting": "[7]", "result": 0.006},
      {"measurement": "glycan array binding signal (z-score)", "setting": "[8]", "result": -0.203},
      {"measurement": "glycan array binding signal (z-score)", "setting": "[9]", "result": -0.269},
      {"measurement": "glycan array binding signal (z-score)", "setting": "[10]", "result": -0.112},
      {"measurement": "glycan array binding signal (z-score)", "setting": "[11]", "result": -0.219},
      {"measurement": "glycan array binding signal (z-score)", "setting": "[12]", "result": -0.158},
      {"measurement": "glycan array binding signal (z-score)", "setting": "[13]", "result": -0.041},
      {"measurement": "glycan array binding signal (z-score)", "setting": "[14]", "result": -0.068},
      {"measurement": "glycan array binding signal (z-score)", "setting": "[15]", "result": -0.289},
      {"measurement": "glycan array binding signal (z-score)", "setting": "[16]", "result": 1.36},
      {"measurement": "glycan array binding signal (z-score)", "setting": "[17]", "result": -0.163},
      {"measurement": "glycan array binding signal (z-score)", "setting": "[18]", "result": -0.12},
      {"measurement": "glycan array binding signal (z-score)", "setting": "[19]", "result": -0.236},
      {"measurement": "glycan array binding signal (z-score)", "setting": "[20]", "result": 0.277},
      {"measurement": "glycan array binding signal (z-score)", "setting": "[21]", "result": -0.07},
      {"measurement": "glycan array binding signal (z-score)", "setting": "[22]", "result": -0.202},
      {"measurement": "glycan array binding signal (z-score)", "setting": "[23]", "result": -0.122},
      {"measurement": "glycan array binding signal (z-score)", "setting": "Fuc(a1-3)GlcNAc", "result": -0.297},
      {"measurement": "glycan array binding signal (z-score)", "setting": "[24]", "result": -0.143},
      {"measurement": "glycan array binding signal (z-score)", "setting": "[25]", "result": -0.206},
      {"measurement": "glycan array binding signal (z-score)", "setting": "[26]", "result": -0.272},
      {"measurement": "glycan array binding signal (z-score)", "setting": "[27]", "result": -0.155},
      {"measurement": "glycan array binding signal (z-score)", "setting": "[28]", "result": -0.138},
      {"measurement": "glycan array binding signal (z-score)", "setting": "[29]", "result": 0.197},
      {"measurement": "glycan array binding signal (z-score)", "setting": "[30]", "result": -0.171},
      {"measurement": "glycan array binding signal (z-score)", "setting": "[31]", "result": -0.175},
      {"measurement": "glycan array binding signal (z-score)", "setting": "[32]", "result": -0.094},
      {"measurement": "glycan array binding signal (z-score)", "setting": "[33]", "result": -0.024},
      {"measurement": "glycan array binding signal (z-score)", "setting": "[34]", "result": -0.188},
      {"measurement": "glycan array binding signal (z-score)", "setting": "[35]", "result": -0.122},
      {"measurement": "glycan array binding signal (z-score)", "setting": "[36]", "result": -0.168},
      {"measurement": "glycan array binding signal (z-score)", "setting": "[37]", "result": -0.034}
    ]}
  ]
}
